Consider 22 molecules from the supplement of paper PMC9588766.

Where a name gives a salt, the structure may show the parent alone. Over roughly 1,900 compounds, “cell viability of compound + 1 nM pemigatinib relative to pemigatinib-only (DMSO) wells” has its median near 0.95; the lowest 2% begin near 0.22. Some of the results follow.

The subject of this assay is PDC-DUC18828. Description: cell viability of compound + 1 nM pemigatinib relative to pemigatinib-only (DMSO) wells (fraction); PDC-DUC18828 is a patient-derived cholangiocarcinoma cell line; higher = less growth inhibition. As to conditions: first compound 1 µM; pemigatinib concentration 1 nM; 72 h. As to the method: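 Selleck Bioactive library screen in the patient-derived FGFR2 fusion-positive ICC cell line PDC-DUC18828 (500 cells/well). Each compound was tested at 1 uM with 1 nM pemigatinib, in triplicate, for 72 h. Viability was read by CellTiter-Glo and normalised to plate DMSO controls. Value is the paper's averaged normalised viability.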
Regarding `CCN(CC)CCOC(=O)c1ccc(N)cc1` [Procaine HCl] + CCN1C(=O)N(c2c(F)c(OC)cc(OC)c2F)Cc2cnc3[nH]c(CN4CCOCC4)cc3c21 [pemigatinib], the cell viability came to 0.953.

Take `CC(=O)O[C@H]1C[C@@H]2CC[C@@H]3[C@H](CC[C@@]4(C)[C@H]3C[C@H]([N+]3(C)CCCCC3)[C@@H]4OC(C)=O)[C@@]2(C)C[C@@H]1N1CCCCC1` [Vecuronium Bromide] + CCN1C(=O)N(c2c(F)c(OC)cc(OC)c2F)Cc2cnc3[nH]c(CN4CCOCC4)cc3c21 [pemigatinib]: the cell viability was determined as 1.09.

For `Cn1nnc(-c2ccc3c(c2)[nH]c2nc(Cc4ccccc4)nc(NC4CCC(N)CC4)c23)n1` (configuration not stated) + CCN1C(=O)N(c2c(F)c(OC)cc(OC)c2F)Cc2cnc3[nH]c(CN4CCOCC4)cc3c21 [pemigatinib], the cell viability amounted to 0.875.

Consider `C[C@@H](O)[C@H]1C(=O)N2C(C(=O)O)=C(S[C@@H]3CN[C@H](C(=O)N(C)C)C3)[C@H](C)[C@H]12` [Meropenem] + CCN1C(=O)N(c2c(F)c(OC)cc(OC)c2F)Cc2cnc3[nH]c(CN4CCOCC4)cc3c21 [pemigatinib], for which the cell viability turned out to be 1.02.

On to `CCN(CC)C(=O)/C(C#N)=C/c1cc(O)c(O)c([N+](=O)[O-])c1` [Entacapone] + CCN1C(=O)N(c2c(F)c(OC)cc(OC)c2F)Cc2cnc3[nH]c(CN4CCOCC4)cc3c21 [pemigatinib], for which the cell viability was 0.873.

As to `C[C@@H]1O[C@@H](OC[C@H]2O[C@@H](Oc3c(-c4ccc(OCCO)c(OCCO)c4)oc4cc(OCCO)cc(O)c4c3=O)[C@H](O)[C@@H](O)[C@@H]2O)[C@H](O)[C@H](O)[C@H]1O` [Troxerutin] + CCN1C(=O)N(c2c(F)c(OC)cc(OC)c2F)Cc2cnc3[nH]c(CN4CCOCC4)cc3c21 [pemigatinib], the cell viability is 0.954.

On to `CC1(C)O[C@@H]2C[C@H]3[C@@H]4CCC5=CC(=O)CC[C@]5(C)[C@@]4(F)[C@@H](O)C[C@]3(C)[C@]2(C(=O)CCl)O1` [Halcinonide] + CCN1C(=O)N(c2c(F)c(OC)cc(OC)c2F)Cc2cnc3[nH]c(CN4CCOCC4)cc3c21 [pemigatinib], for which the cell viability was 0.86.

On to `C[C@]12C=CC(=O)C=C1CC[C@H]1[C@@H]3C[C@@H](O)[C@](O)(C(=O)CO)[C@@]3(C)C[C@H](O)[C@@]12F` [Triamcinolone] + CCN1C(=O)N(c2c(F)c(OC)cc(OC)c2F)Cc2cnc3[nH]c(CN4CCOCC4)cc3c21 [pemigatinib], for which the cell viability amounted to 0.894.

For the molecule `N#Cc1ccc(COC[C@H]2O[C@@H](n3c(NCc4ccc(Cl)c(Cl)c4)nc4c(N)ncnc43)[C@H](O)[C@@H]2O)cc1` + CCN1C(=O)N(c2c(F)c(OC)cc(OC)c2F)Cc2cnc3[nH]c(CN4CCOCC4)cc3c21 [pemigatinib], the cell viability is 0.88.

`Cc1coc2c1C(=O)C(=O)c1c-2ccc2c1CCCC2(C)C` [Tanshinone IIA] + CCN1C(=O)N(c2c(F)c(OC)cc(OC)c2F)Cc2cnc3[nH]c(CN4CCOCC4)cc3c21 [pemigatinib]: the cell viability is 0.986.

For `CCc1c(O)cc(O)c(C(=O)c2ccc(OCCN3CCOCC3)c(OC)c2)c1CC(=O)N(CCOC)CCOC` + CCN1C(=O)N(c2c(F)c(OC)cc(OC)c2F)Cc2cnc3[nH]c(CN4CCOCC4)cc3c21 [pemigatinib], the cell viability is 0.649.

In the case of `CNCCCC12CCC(c3ccccc31)c1ccccc12` [Maprotiline HCl] + CCN1C(=O)N(c2c(F)c(OC)cc(OC)c2F)Cc2cnc3[nH]c(CN4CCOCC4)cc3c21 [pemigatinib], the cell viability was determined as 0.929.

Turning to `CC[C@H]1OC(=O)C[C@@H](O)[C@H](C)[C@@H](O[C@@H]2O[C@H](C)[C@@H](O)[C@H](N(C)C)[C@H]2O)[C@@H](CCN2C[C@H](C)C[C@H](C)C2)C[C@@H](C)C(=O)/C=C/C(C)=C/[C@@H]1CO[C@@H]1O[C@H](C)[C@@H](O)[C@@H](OC)[C@H]1OC` [Tilmicosin] + CCN1C(=O)N(c2c(F)c(OC)cc(OC)c2F)Cc2cnc3[nH]c(CN4CCOCC4)cc3c21 [pemigatinib], the cell viability worked out at 0.985.

For the molecule `OC(c1cc(C(F)(F)F)nc2c(C(F)(F)F)cccc12)C1CCCCN1` (configuration not stated) [Mefloquine HCl] + CCN1C(=O)N(c2c(F)c(OC)cc(OC)c2F)Cc2cnc3[nH]c(CN4CCOCC4)cc3c21 [pemigatinib], the cell viability came out at 0.986.

Regarding `COc1ccc2c(c1)c(CC(=O)N1CCOCC1)c(C)n2C(=O)c1ccc(Cl)cc1` + CCN1C(=O)N(c2c(F)c(OC)cc(OC)c2F)Cc2cnc3[nH]c(CN4CCOCC4)cc3c21 [pemigatinib], the cell viability was 0.94.

Take `CN(C)Cc1cccc(N=C(c2ccccc2)c2c(O)[nH]c3cc(C(=O)N(C)C)ccc23)c1` + CCN1C(=O)N(c2c(F)c(OC)cc(OC)c2F)Cc2cnc3[nH]c(CN4CCOCC4)cc3c21 [pemigatinib]: the cell viability was 0.994.

`CS(=O)(=O)c1ccc(-c2cnc(N)c(C(=O)Nc3ccccc3)n2)cc1` + CCN1C(=O)N(c2c(F)c(OC)cc(OC)c2F)Cc2cnc3[nH]c(CN4CCOCC4)cc3c21 [pemigatinib]: the cell viability is 0.97.

As to `COc1c(C)c2c(c(O)c1C/C=C(\C)CCC(=O)O)C(=O)OC2` [Mycophenolic acid] + CCN1C(=O)N(c2c(F)c(OC)cc(OC)c2F)Cc2cnc3[nH]c(CN4CCOCC4)cc3c21 [pemigatinib], the cell viability was 0.504.

Turning to `O=C(Oc1ccccc1C(=O)O)c1ccccc1O` [Sasapyrine] + CCN1C(=O)N(c2c(F)c(OC)cc(OC)c2F)Cc2cnc3[nH]c(CN4CCOCC4)cc3c21 [pemigatinib], the cell viability was 0.968.

As to `O=C(NCCN1CCOCC1)c1ccc(Cl)cc1` + CCN1C(=O)N(c2c(F)c(OC)cc(OC)c2F)Cc2cnc3[nH]c(CN4CCOCC4)cc3c21 [pemigatinib], the cell viability amounted to 0.858.

Turning to `Cc1cc(Cl)ccc1OCCCC(=O)NO` [Droxinostat] + CCN1C(=O)N(c2c(F)c(OC)cc(OC)c2F)Cc2cnc3[nH]c(CN4CCOCC4)cc3c21 [pemigatinib], the cell viability worked out at 0.941.

`Cc1ccc(-n2sc(=O)n(Cc3ccc(F)cc3)c2=O)cc1` + CCN1C(=O)N(c2c(F)c(OC)cc(OC)c2F)Cc2cnc3[nH]c(CN4CCOCC4)cc3c21 [pemigatinib]: the cell viability came out at 0.823.
